Test results: article PMC10017685 (Nature Communications, 2023)
Read-outs that look alike come from different tables or passages of the source.

Columns and labels:
[1] = tested on: E. coli ATCC 25922; type: cell-based, Escherichia coli
Experimental: (§1) Fresh cultures were used in antimicrobial assay. […] Moreover MBC was evaluated. […] All experiments were conducted in triplicate.

[2] = tested on: S. aureus ATCC 33591; type: cell-based, Staphylococcus aureus; settings: for S. aureus ATCC 33591 MIC: second experimental round, broth microdilution (CLSI), Mueller-Hinton Broth, 0.5 × 10^5 CFU/mL, 1-[…], 18 h at 37 °C
Experimental: as §1

[3] = tested on: E. coli ATCC 43827; type: cell-based, Escherichia coli
[4] = tested on: P. aeruginosa ATCC 9027; type: cell-based, Pseudomonas aeruginosa; settings: triplicate; for P. aeruginosa ATCC 9027 MIC: second experimental round, broth microdilution (CLSI), Mueller-Hinton Broth, 0.5 × 10^5 CFU/mL, 1-[…], 18 h at 37 °C; for P. aeruginosa ATCC 9027 MBC: second round, MIC well and two higher concentrations seeded on agar plates, no visible colonies
Experimental: as §1

[5] = tested on: A. baumannii ATCC BAA 1605; type: cell-based, Acinetobacter baumannii; settings: triplicate; for A. baumannii ATCC BAA 1605 MIC: second experimental round, broth microdilution (CLSI), Mueller-Hinton Broth, 0.5 × 10^5 CFU/mL, 1-[…], 18 h at 37 °C; for A. baumannii ATCC BAA 1605 MBC: second round, MIC well and two higher concentrations seeded on agar plates, no visible colonies
Experimental: as §1

[6] = tested on: Sheep red blood cells; test: Hemolysis assay (HC50); type: cell-based; settings: for HC50 (µM/ml): sheep erythrocytes, recalculated from μg/mL values, estimated as in https://pubmed.ncbi.nlm.nih.gov/29307075/; for HC50: sheep red blood cells 4% (v/v) in PBS, peptides 1-[…], 60 min at 37 °C, hemoglobin release at 590 nm, 1% Triton-X 100 = 100% hemolysis, triplicate, HC50 by ic50.tk
Experimental: The hemolysis assay was conducted according to the procedure described previously. Sheep red blood cells (Defibrillated Sheep Blood, Graso, Poland) were used. […] Then the solution of RBCs was added to each well (100 μL with a 4% concentration of erythrocytes (v/v). The control wells for 0 and 100% hemolysis were also prepared: RBCs suspended in PBS and 1% of Triton-X 100, respectively. After that the plates were incubated for 60 min at 37 °C and then centrifuged at 800 × g for 10 min at 4 °C (Sorvall ST 16R Centrifuge, Thermo Scientific). The supernatant was carefully […] to new microtiter plates and the release of hemoglobin was measured at 590 nm (Multiskan™ GO Microplate Spectrophotometer, Thermo Scientific). Hemolysis for each concentration was calculated as the percentage of control with 100% hemolysis. All experiments were conducted in triplicate. The final values of HC50 were computed using ic50.tk tool.

[7] = second experimental round, broth microdilution (CLSI), Mueller-Hinton Broth, 0.5 × 10^5 CFU/mL, 1-[…], 18 h at 37 °C, triplicate
[8] = second round, MIC well and two higher concentrations seeded on agar plates, no visible colonies, triplicate

Compound | E. coli ATCC 25922 MIC [1, 7] [µg/mL] | E. coli ATCC 25922 MBC [1, 8] [µg/mL] | S. aureus ATCC 33591 MIC ([2]; triplicate) [µg/mL] | S. aureus ATCC 33591 MBC [2, 8] [µg/mL] | E. coli ATCC 43827 MIC [3, 7] [µg/mL] | E. coli ATCC 43827 MBC [3, 8] [µg/mL] | P. aeruginosa ATCC 9027 MIC [4] [µg/mL] | P. aeruginosa ATCC 9027 MBC [4] [µg/mL] | A. baumannii ATCC BAA 1605 MIC [5] [µg/mL] | A. baumannii ATCC BAA 1605 MBC [5] [µg/mL] | HC50 (µM/ml) [6] [µM/ml] | HC50 [6] [µg/mL] | E. coli ATCC 25922 MBC [1] [µg/mL] | E. coli ATCC 25922 MIC [1] [µg/mL] | S. aureus ATCC 33591 MBC [2] [µg/mL] | E. coli ATCC 43827 MBC [3] [µg/mL] | E. coli ATCC 43827 MIC [3] [µg/mL]
CC[C@H](C)[C@H](NC(=O)[C@H](CCCCN)NC(=O)[C@H](CCCCN)NC(=O)[C@@H](NC(=O)[C@@H](NC(=O)[C@H](CCCCN)NC(=O)[C@@H](NC(=O)[C@H](C)NC(=O)[C@@H](NC(=O)[C@H](Cc1c[nH]cn1)NC(=O)CNC(=O)[C@H](C)NC(=O)[C@H](CC(C)C)NC(=O)[C@H](CC(=O)O)NC(=O)[C@H](CCCCN)NC(=O)[C@H](C)NC(=O)[C@H](C)NC(=O)[C@H](CO)NC(=O)[C@H](CCCCN)NC(=O)[C@H](CC(C)C)NC(=O)[C@@H](NC(=O)[C@H](CCC(=O)O)NC(=O)[C@H](CC(C)C)NC(=O)[C@@H](NC(=O)CN)C(C)C)[C@@H](C)CC)C(C)C)[C@@H](C)O)C(C)C)[C@@H](C)CC)C(N)=O [Syphaxin-TII7] | 256 | 512 | 64 | 64 | 512 | 512 | 512 | >512 | 64 | 64 | 151 | >512 | – | – | – | – | –
CC[C@H](C)[C@H](NC(=O)[C@H](CCCCN)NC(=O)[C@H](CCCCN)NC(=O)[C@@H](NC(=O)[C@@H](NC(=O)[C@H](CCCCN)NC(=O)[C@@H](NC(=O)[C@H](C)NC(=O)[C@@H](NC(=O)[C@H](Cc1c[nH]cn1)NC(=O)CNC(=O)[C@H](C)NC(=O)[C@H](CC(C)C)NC(=O)[C@H](CC(=O)O)NC(=O)[C@H](CCCCN)NC(=O)[C@H](C)NC(=O)[C@H](C)NC(=O)CNC(=O)[C@H](CCCCN)NC(=O)[C@H](CC(C)C)NC(=O)[C@@H](NC(=O)[C@H](CCC(=O)O)NC(=O)[C@H](CC(C)C)NC(=O)[C@@H](NC(=O)CN)C(C)C)[C@@H](C)CC)C(C)C)[C@@H](C)O)C(C)C)[C@@H](C)CC)C(N)=O [Syphaxin-TII6] | 256 | 512 | >512 | >512 | 512 | 512 | >512 | >512 | 64 | 64 | 152 | >512 | – | – | – | – | –
CC[C@H](C)[C@H](NC(=O)[C@@H](NC(=O)CN)C(C)C)C(=O)N[C@@H](CC(=O)O)C(=O)N[C@@H](Cc1ccccc1)C(=O)N[C@@H](CC(C)C)C(=O)N[C@@H](CCCCN)C(=O)NCC(=O)N[C@@H](C)C(=O)N[C@@H](C)C(=O)N[C@@H](CCCCN)C(=O)N[C@@H](CC(=O)O)C(=O)N[C@@H](CC(C)C)C(=O)N[C@@H](C)C(=O)NCC(=O)N[C@@H](Cc1c[nH]cn1)C(=O)N[C@H](C(=O)N[C@@H](C)C(=O)N[C@H](C(=O)N[C@@H](CCCCN)C(=O)N[C@H](C(=O)N[C@H](C(=O)N[C@@H](CCCCN)C(=O)N[C@@H](CCCCN)C(=O)N[C@@H](CC(C)C)C(N)=O)[C@@H](C)CC)C(C)C)[C@@H](C)O)C(C)C [Syphaxin-TIII5] | 256 | 512 | >512 | >512 | 512 | 512 | 512 | >512 | 64 | 64 | 151 | >512 | – | – | – | – | –
CC[C@H](C)[C@H](N)C(=O)NCC(=O)N[C@@H](CCCCN)C(=O)N[C@@H](CC(C)C)C(=O)N[C@@H](Cc1ccccc1)C(=O)N[C@@H](CCCCN)C(=O)N[C@@H](CCCNC(=N)N)C(=O)N[C@H](C(=O)N[C@@H](Cc1c[nH]cn1)C(=O)N[C@@H](CCC(=O)O)C(=O)N[C@@H](CCCNC(=N)N)C(=O)N[C@H](C(=O)N[C@@H](CCCCN)C(=O)N[C@@H](CCCNC(=N)N)C(=O)N[C@@H](Cc1ccccc1)C(=O)N[C@@H](CC(C)C)C(=O)N[C@@H](CCCNC(=N)N)C(=O)N[C@H](C(=O)N[C@@H](Cc1ccccc1)C(=O)N[C@@H](CC(C)C)C(=O)N[C@@H](CCCNC(=N)N)C(=O)N[C@@H](CCCNC(=N)N)C(=O)N[C@@H](CC(C)C)C(=O)N[C@@H](CCCNC(=N)N)C(N)=O)C(C)C)[C@@H](C)CC)[C@@H](C)CC [Varsavian] | 64 | 64 | 32 | 32 | 64 | 128 | 128 | 256 | 32 | 32 | 113 | 512 | 64 | 64 | 32 | 128 | 64
